Reference: paper PMC12136788
This is one part of the list.

B1: 56480571_56481790_460_3pUTR_ENSG00000167005_ENST00000300291|human|control|control (ssRNA)
RNA: GGGAGUUCUACAGUCCGACGAUCUCUUCUCCUGGGUUAAGUUCACCACCAGGUAGUUUGAAGAAAGUUGUUCCCAGCUGCAGCAGUAACACAUGGGGUAGCCGGUGCUCAUGUACAAUCAGAACCCCUUCUACAGUCCUCCUCCAACAGAGGAUUGAGCAUCA
B2: chr12:39756943:39756944:-_ENSG00000139116_ENST00000544797|hu_mus|hu_hu_hu_mus_False|78_98 (ssRNA)
RNA: GGGAGUUCUACAGUCCGACGAUCGGUUUGGCUGUUACCCCCGAGGGAAUCCUGCAAUAGUCUUGUUAGCUUAGAGUCUCUGUAAGGGACAUGGGUGGCUCUCUUGCUCUUGUCCCCCAAGGCGCUGAUUACAUUCCCAAGAGCCAACAGAGGAUUGAGCAUCA
B3: chr11:98018192:98018193:-_ENSMUSG00000018160_ENSMUST00000107545|mus_mus|motif|central (ssRNA)
RNA: GGGAGUUCUACAGUCCGACGAUCUCCUGAACUGCCUGGGGAUUUGGACCCACCCGUGCUGGUAGGUGGGGUGAAAGGUCGGUUAGAAGAACUGUGAGAUGGGGACUUCCCCUCAGUGUCUGCCUUCUUCCGCUUUGGAGGCUUCAACAGAGGAUUGAGCAUCA
B4: chrX:101157612:101157613:-_ENSMUSG00000056537_ENSMUST00000070705|mus_hu|FALSE|FALSE (ssRNA)
RNA: GGGAGUUCUACAGUCCGACGAUCUAUCAGUAACAGUGAUGCUACCAAUUUAACUGGUACGGAAAUCAGAUUUUUAGGUCCUAUAACGUGGCUUUUAAAAUAUUUCCUUUUAUUCUGGAACAAAAACUGGAGAAAGGACAAUGACAACAGAGGAUUGAGCAUCA
B5: chrX:131338992:131338993:-_ENSMUSG00000033436_ENSMUST00000035559|mus_mus|motif|central (ssRNA)
RNA: GGGAGUUCUACAGUCCGACGAUCUAUCACAGAUAACAUCACUCUGAAUUAUUCAAACGUGGCAUCUGAAUAAUUCCUGUACGGCACACACAAGUAGAAAAACAAUAGUGUCUCACUGUUAAUGCUUCCCGAGUGUAAAACCGACAACAGAGGAUUGAGCAUCA
B6: chrX:71549762:71549763:+_ENSMUSG00000019087_ENSMUST00000019231|mus_mus|mus_mus_mus_hu_False|58_108 (ssRNA)
RNA: GGGAGUUCUACAGUCCGACGAUCAAAGUGUACCACUUCUUAUUGUUAGCACAACAUCACCAGAAAACGAUAACGACAGCUAAGCUGGACAGACAGUUAAGUAGUACUUCCACACUCCCAAACUCAGGGAGCCCUAUAACCUUACAACAGAGGAUUGAGCAUCA
B7: chr2:179883191:179883192:+_ENSMUSG00000039050_ENSMUST00000040668|mus_mus|motif|central (ssRNA)
RNA: GGGAGUUCUACAGUCCGACGAUCGUAGAUGGAACCGUGGAACCUGAAGUCUUGAUUGAGACCUUCUGAAUAAAAUGCGCGGAUAGGAGGGUGGUGACUGACCUGCUCAGAUAUAAAUCUGAACCCUAAGUCUUCCCUGAUCAACAACAGAGGAUUGAGCAUCA
B8: 31070288_31070408_2187_3pUTR_ENSMUSG00000000194_ENSMUST00000056433|mouse|control|control (ssRNA)
RNA: GGGAGUUCUACAGUCCGACGAUCAAAGAAUUUCAUUCAUUUCUGUGGUUCUUGUCCCCAAAGGCUGACAAUCCCUUUCUCCUAUGCCCUUGGUAGAUAUCUGUCUAGUUCCCAAAGUAAAUCCUUCUCCCCCACCCUGGUGCUCAACAGAGGAUUGAGCAUCA
B9: 35719413_35722846_1177_CDS_ENSMUSG00000022848_ENSMUST00000023554|mouse|control|control (ssRNA)
RNA: GGGAGUUCUACAGUCCGACGAUCGUGGGUGAUGCUGUUUAGGCAGGUCAGGGUGAACCACGUGGACGACAGGGUAGCCCCAGAAAACAGGAGGAGCAGGAUCAGUUUCAGCAUGCCCCGGAUAAAAUCCGCAAACCUUGCCAUCAACAGAGGAUUGAGCAUCA
B10: chr11:87793471:87793472:-_ENSMUSG00000020483_ENSMUST00000020775|mus_mus|mus_mus_mus_hu_False|58_108 (ssRNA)
RNA: GGGAGUUCUACAGUCCGACGAUCUGGGGGCUGGGGAAAAAGAAUAAGCUGGAUCCCCCACCCCCCCACAUUGUCAACCCUAUGCGAGAGUUUUGAAGGCGACUCAUGAAAAUCAGCAGCUCAAACGGCAAUGACCACCCCACCCAACAGAGGAUUGAGCAUCA
B11: 127786347_127786837_1303_CDS_ENSG00000058262_ENST00000243253|human|control|control (ssRNA)
RNA: GGGAGUUCUACAGUCCGACGAUCCUGCUUUGCAACAUCUUUGGCAGAGGAACCUGAGACCUCAAUCCACGUUUUGGAGAAGAAUGCACAGGAGCCCAGCAUGAACACUAUGUAUACAACUGCAUGGACCGGGUCUUCUAACACCAACAGAGGAUUGAGCAUCA
B12: chr1:185278638:185278639:-_ENSG00000116679_ENST00000392007|hu_mus|FALSE|FALSE (ssRNA)
RNA: GGGAGUUCUACAGUCCGACGAUCUAAAAUUUUCAUCUUCAAACAUCAAAUAUCCAUUGGGAAUCAUUUUUCCUUAUAAAUUUGGCAACAAUUACUGAAGAGAAAUGUGUCACUGAGAACGCAAAUGAUCCAAAGACAAAGAAGCAACAGAGGAUUGAGCAUCA
B13: chr3:150289932:150289933:+_ENSG00000144895_ENST00000460851|hu_hu|hu_hu_hu_mus_False|78_78 (ssRNA)
RNA: GGGAGUUCUACAGUCCGACGAUCCUUGUAGUUUUUAACAUCCCAUACUUCCAUUUGUCCCCUCAGAUUUCCAAAUCCAGCCAGCACUAAUAUAUGUCCAUGAGGGCUAUAGAAGGCUGCGUUGCGAGGACCAGUCCCAAAGUCCAACAGAGGAUUGAGCAUCA
B14: chr1:225611761:225611762:-_ENSG00000143815_ENST00000272163|hu_mus|hu_hu_hu_mus_True|28_88 (ssRNA)
RNA: GGGAGUUCUACAGUCCGACGAUCCCAGGCCAUCGGCCUCUGACCACUUCACCAUCGACAAACUUCCUACUUGGCAUUUUCUAAAAUUAGUCUGGCCGCGCUCCGGCCGGUGACACGGCCACUCCAGGACAGUCACCAGCAGCCCAACAGAGGAUUGAGCAUCA

target: T1, UNK ZnF1-3 (human, UniProt Q9C0B0 31-174); assay: nsRBNS (natural sequence RNA bind-n-seq); RBNS binding buffer (assumed for nsRBNS): 25 mM Tris pH 7.5, 150 mM KCl, 3 mM MgCl2, 0.01% Triton X-100, 500 ug/ml BSA, 20 U/ml SUPERase-In, 4 C; UNK is unkempt and MSI1 is Musashi-1; names of the RNAs are library labels; protein concentration not given here; high values mean tight binding
T1 sequence: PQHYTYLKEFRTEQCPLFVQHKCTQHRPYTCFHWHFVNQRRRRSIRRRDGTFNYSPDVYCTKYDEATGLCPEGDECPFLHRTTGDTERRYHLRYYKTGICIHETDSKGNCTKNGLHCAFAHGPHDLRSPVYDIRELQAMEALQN

| Binder | binding signal |
| --- | --- |
| B1 | 1.04 enrichment R |
| B2 | 0.831 enrichment R |
| B3 | 0.975 enrichment R |
| B4 | 0.86 enrichment R |
| B5 | 0.704 enrichment R |
| B6 | 1.05 enrichment R |
| B7 | 1.22 enrichment R |
| B8 | 0.776 enrichment R |
| B9 | 1.23 enrichment R |
| B10 | 1.44 enrichment R |
| B11 | 1.45 enrichment R |
| B12 | 1.18 enrichment R |
| B13 | 1.1 enrichment R |
| B14 | 0.973 enrichment R |
